The other results are listed elsewhere or left out. Sequences were assembled here from the parent chain. Values near 0.05 are background.
B1: TEV protease; numbered along this chain (parent)
chain: MGESLFKGPRDYNPISSSICHLTNESDGHTTSLYGIGFGPFIITNKHLFRRNNGTLVVQSLHGVFKVKDTTTLQQHLVDGRDMIIIRMPKDFPPFPQKLKFREPQREERICLVTTNFQTKSMSSMVSDTSCTFPSGDGIFWKHWIQTKDGQCGSPLVSTRDGFIVGIHSASNFTNTNNYFTSVPKNFMELLTNQEAQQWVSGWRLNADSVLWGGHKVFMVKPEEPFQPVKEATQL

Variants of: B1
Assay: raw area under fraction-flipped curve 0-4 h after induction (AUC4h, not background-subtracted), DNA-recorder readout of cleavage of the substrate (dimensionless); higher = more cleavage of the substrate by the protease variant
Conditions: temperature: 34 °C; time window: 0-4 h after rhamnose induction
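Note: Bxb1 expression induced with 0.2% (w/v) L-rhamnose at OD600 near 0.5, cultures sampled hourly, flipped fraction per protease–substrate barcode pair counted by paired-end Illumina sequencing.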

Variant | area with substrate ANLYFQS | area with substrate CNLYFQS | area with substrate DNLYFQS | area with substrate FNLYFQS | area with substrate GNLYFQS | area with substrate HNLYFQS | area with substrate INLYFQS | area with substrate LNLYFQS | area with substrate MNLYFQS | area with substrate NNLYFQS | area with substrate PNLYFQS | area with substrate QNLYFQS | area with substrate RNLYFQS | area with substrate SNLYFQS | area with substrate TNLYFQS | area with substrate WNLYFQS | area with substrate YNLYFQS | area with substrate KNLYFQS | area with substrate VNLYFQS
Q234K | 0.0742 | 0.0537 | 0.0641 | 0.0571 | 0.0648 | 0.0637 | 0.0644 | 0.0652 | 0.0785 | 0.073 | 0.0683 | 0.107 | 0.0562 | 0.0765 | 0.0694 | 0.0575 | 0.0516 |  | 
Q234I | 0.0568 | 0.0665 | 0.0909 |  |  | 0.0698 |  |  |  |  |  |  |  |  | 0.0639 | 0.0545 | 0.0676 | 0.049 | 
V200N |  |  |  | 0.0719 | 0.0631 |  | 0.0584 |  |  |  | 0.0236 |  |  |  | 0.0406 | 0.0723 |  |  | 
T233H | 0.0534 | 0.0797 | 0.0773 | 0.0915 |  | 0.0598 | 0.0699 | 0.0735 |  |  | 0.043 |  |  |  | 0.0824 | 0.0603 | 0.0499 |  | 0.0686
T233K | 0.058 | 0.0628 | 0.0814 | 0.0616 |  | 0.0695 |  | 0.062 | 0.0889 |  |  |  | 0.079 |  | 0.0649 | 0.0488 | 0.0647 | 0.0631 | 0.0253
E224F |  |  |  | 0.0607 | 0.0882 |  |  |  |  | 0.0821 | 0.0707 |  |  | 0.0561 |  | 0.0629 | 0.0577 |  | 0.0573

Reference: the supplement of paper PMC12217912
